The supplement of paper PMC4967469
IC50 is the fitted dose that halves viability relative to control wells, and lower means more sensitive; a fit beyond the top or the lowest dose is shown as a bound at that dose. AUC is the area under the same curve over the 256-fold range up to the top dose, as a fraction: 1 means no effect, lower means more sensitive. Any top dose called inferred is not printed in the source and was worked back from the curve model. Drugs with an entry number were screened twice under separate entries, and the two screens often disagree.

Compound: NC(=O)[C@@H](CCC(F)(F)F)N(Cc1ccc(-c2ncon2)cc1F)S(=O)(=O)c1ccc(Cl)cc1 [BMS-708163]
Test: Viability of human cancer cell lines after 72 h of drug (GDSC screen)
Settings: screen: GDSC drug entry 205; top dose inferred
Method: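 Human cancer cell lines in 384-well plates, medium with 10% serum, drug for 72 h over a 256-fold dose range (nine 2-fold or five 4-fold steps up to the top dose). Adherent lines were fixed and stained with the nucleic acid dye Syto60, suspension lines read with resazurin; signal relative to control wells, capped at 0 and 100%. One two-parameter sigmoid per drug and line, fitted in a mixed model over all curves with the slope shared within a line.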

Cell Line | AUC | IC50 [µM]
SK-GT-4 (oesophagus, adherent, top dose 10.24 µM) | 0.982 | > 10.2
LN-405 (glioma, adherent, top dose 10.24 µM) | 0.984 | > 10.2
JHOS-2 (ovary, adherent, top dose 10.24 µM) | 0.971 | > 10.2
BC-1 (B-cell lymphoma, suspension, top dose 10.24 µM) | 0.982 | > 10.2
NCI-H1876 (small cell lung carcinoma, adherent, top dose 10.24 µM) | 0.986 | > 10.2
CAL-72 (osteosarcoma, adherent, top dose 10.24 µM) | 0.984 | > 10.2
OCI-AML3 (acute myeloid leukaemia, suspension, top dose 10.24 µM) | 0.978 | > 10.2
AM-38 (glioma, semi-adherent, top dose 10.24 µM) | 0.988 | > 10.2
EFO-21 (ovary, adherent, top dose 10.24 µM) | 0.975 | > 10.2
MOLM-13 (acute myeloid leukaemia, suspension, top dose 10.24 µM) | 0.89 | > 10.2
L-1236 (Hodgkin lymphoma, suspension, top dose 10.24 µM) | 0.992 | > 10.2
KALS-1 (glioma, adherent, top dose 10.24 µM) | 0.974 | > 10.2
NCI-H1869 (lung squamous cell carcinoma, adherent, top dose 10.24 µM) | 0.984 | > 10.2
SW1783 (glioma, adherent, top dose 10.24 µM) | 0.99 | > 10.2
OPM-2 (myeloma, suspension, top dose 10.24 µM) | 0.991 | > 10.2
RERF-LC-MS (lung adenocarcinoma, adherent, top dose 10.24 µM) | 0.987 | > 10.2
NCI-H1623 (lung adenocarcinoma, adherent, top dose 10.24 µM) | 0.983 | > 10.2
DMS-79 (small cell lung carcinoma, suspension, top dose 10.24 µM) | 0.986 | > 10.2
697 (lymphoblastic leukaemia, suspension, top dose 10.24 µM) | 0.978 | > 10.2
CGTH-W-1 (thyroid, adherent, top dose 10.24 µM) | 0.975 | > 10.2
HuO-3N1 (osteosarcoma, adherent, top dose 10.24 µM) | 0.979 | > 10.2
RH-41 (rhabdomyosarcoma, adherent, top dose 10.24 µM) | 0.986 | > 10.2
HCC-33 (small cell lung carcinoma, adherent, top dose 10.24 µM) | 0.983 | > 10.2
SNU-182 (liver, adherent, top dose 10.24 µM) | 0.986 | > 10.2

Cell Line | AUC | IC50 [µM]
MG-63 (osteosarcoma, adherent, top dose 10.24 µM) | 0.984 | > 10.2
NCI-H1417 (small cell lung carcinoma, suspension, top dose 10.24 µM) | 0.975 | > 10.2
LoVo (large intestine, adherent, top dose 10.24 µM) | 0.987 | > 10.2
NCI-H520 (lung squamous cell carcinoma, adherent, top dose 10.24 µM) | 0.962 | > 10.2
EFM-192A (breast, adherent, top dose 10.24 µM) | 0.984 | > 10.2
HOS (osteosarcoma, adherent, top dose 10.24 µM) | 0.992 | > 10.2
HDLM-2 (Hodgkin lymphoma, suspension, top dose 10.24 µM) | 0.987 | > 10.2
EW-11 (Ewing sarcoma, adherent, top dose 10.24 µM) | 0.981 | > 10.2
RD (rhabdomyosarcoma, adherent, top dose 10.24 µM) | 0.985 | > 10.2
WM793B (melanoma, adherent, top dose 10.24 µM) | 0.959 | > 10.2
NCI-H2081 (small cell lung carcinoma, suspension, top dose 10.24 µM) | 0.989 | > 10.2
NOMO-1 (acute myeloid leukaemia, suspension, top dose 10.24 µM) | 0.982 | > 10.2
OCUM-1 (stomach, adherent, top dose 10.24 µM) | 0.986 | > 10.2
PFSK-1 (medulloblastoma, adherent, top dose 10.24 µM) | 0.986 | > 10.2
HUTU-80 (digestive system, adherent, top dose 10.24 µM) | 0.991 | > 10.2
Hs940-T (melanoma, adherent, top dose 10.24 µM) | 0.979 | > 10.2
CAL-29 (bladder, adherent, top dose 10.24 µM) | 0.984 | > 10.2
SK-MEL-2 (melanoma, adherent, top dose 10.24 µM) | 0.987 | > 10.2
TGBC1TKB (biliary tract, adherent, top dose 10.24 µM) | 0.989 | > 10.2
HCC2157 (breast, suspension, top dose 10.24 µM) | 0.987 | > 10.2
NCI-H748 (small cell lung carcinoma, suspension, top dose 10.24 µM) | 0.974 | > 10.2
A427 (non-small cell lung carcinoma, adherent, top dose 10.24 µM) | 0.982 | > 10.2
Hs633T (fibrosarcoma, adherent, top dose 10.24 µM) | 0.992 | > 10.2
SW948 (large intestine, adherent, top dose 2.56 µM) | 0.981 | > 2.56

Cell Line | AUC | IC50 [µM]
Hs746T (stomach, adherent, top dose 10.24 µM) | 0.976 | > 10.2
SF268 (glioma, adherent, top dose 10.24 µM) | 0.985 | > 10.2
KE-37 (lymphoblastic leukaemia, suspension, top dose 2.56 µM) | 0.993 | > 2.56
JJN-3 (haematopoietic neoplasm, suspension, top dose 10.24 µM) | 0.993 | > 10.2
NCI-H2342 (lung adenocarcinoma, adherent, top dose 10.24 µM) | 0.986 | > 10.2
RPMI-8866 (chronic myeloid leukaemia, suspension, top dose 10.24 µM) | 0.987 | > 10.2
OMC-1 (cervix, adherent, top dose 10.24 µM) | 0.987 | > 10.2
HCC70 (breast, adherent, top dose 10.24 µM) | 0.986 | > 10.2
EC-GI-10 (oesophagus, adherent, top dose 10.24 µM) | 0.989 | > 10.2
BxPC-3 (pancreas, adherent, top dose 10.24 µM) | 0.984 | > 10.2
KASUMI-1 (acute myeloid leukaemia, suspension, top dose 10.24 µM) | 0.968 | > 10.2
Hs766T (pancreas, adherent, top dose 10.24 µM) | 0.984 | > 10.2
SNU-81 (large intestine, adherent, top dose 10.24 µM) | 0.981 | > 10.2
RPMI-8226 (myeloma, suspension, top dose 10.24 µM) | 0.99 | > 10.2
OC-314 (ovary, adherent, top dose 10.24 µM) | 0.99 | > 10.2
KYSE-220 (oesophagus, adherent, top dose 10.24 µM) | 0.965 | > 10.2
G-361 (melanoma, adherent, top dose 10.24 µM) | 0.987 | > 10.2
ROS-50 (B-cell leukaemia, suspension, top dose 10.24 µM) | 0.984 | > 10.2
A3-KAW (B-cell lymphoma, suspension, top dose 10.24 µM) | 0.989 | > 10.2
8-MG-BA (glioma, adherent, top dose 10.24 µM) | 0.987 | > 10.2
RERF-LC-KJ (lung adenocarcinoma, adherent, top dose 10.24 µM) | 0.984 | > 10.2
MOLP-8 (myeloma, suspension, top dose 10.24 µM) | 0.987 | > 10.2
KP-3 (pancreas, adherent, top dose 10.24 µM) | 0.984 | > 10.2

Same assay, conditions: top dose 5 µM; screen: GDSC drug entry 1072; top dose inferred

Cell Line | AUC | IC50 [µM]
SK-MEL-31 (melanoma, adherent) | 0.975 | > 5
M059J (glioma, adherent) | 0.965 | > 5
SW48 (large intestine, adherent) | 0.931 | > 5
MOLT-16 (T-cell lymphoblastic leukaemia, suspension) | 0.97 | > 5
CML-T1 (chronic myeloid leukaemia, suspension) | 0.989 | > 5
HCC-366 (non-small cell lung carcinoma, adherent) | 0.985 | > 5
